Experimental data taken from PubChem BioAssay AID1240 (Sanford-Burnham Center for Chemical Genomics, 2008).
The whole screen tested about 50,000 compounds, of which about 800 (1.6%) showed an effect of 50% or more. Some of the results follow.

Molecular target: Bcl-2-like protein 10 (Homo sapiens) (UniProt Q9HD36)
Test: Phenotype converters, Bcl-B/TR3 peptide binding displacement, primary biochemical FP (AID 1240);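 note: 0% = Bcl-B with tracer peptide and DMSO and 100% = tracer peptide lacking Bcl-B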
Conditions: GST-Bcl-B / FITC-TR3 peptide fluorescence polarization; stronger effect = higher value; compound at 3.75 mg/L

UniProt Q9HD36, sequence (Q9HD36 whole entry, looked up): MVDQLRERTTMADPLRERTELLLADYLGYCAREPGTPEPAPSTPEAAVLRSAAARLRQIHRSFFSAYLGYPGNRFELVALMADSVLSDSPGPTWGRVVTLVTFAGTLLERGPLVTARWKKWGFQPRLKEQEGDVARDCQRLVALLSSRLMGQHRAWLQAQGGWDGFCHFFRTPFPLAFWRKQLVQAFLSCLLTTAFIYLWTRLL

SMILES	displacement
CCOC(=O)C1=C(O)/C(=C\c2ccc(OC)cc2)SC1=Nc1cccc(Cl)c1	-39%
Cc1cc2nc3s/c(=C/c4ccc(-c5cc([N+](=O)[O-])ccc5Cl)o4)c(=O)n3c2cc1C	1%
CCOc1ccc(C(=O)Nc2ccc3oc(-c4ccncc4)nc3c2)cc1Cl	-9.5%
COc1ccc(OC)c(/C=C2/SC(=S)N(CNc3cccc(Cl)c3)C2=O)c1	57%
COCCOC(=O)c1ccc(NC(=O)COc2ccc3c(C)cc(=O)oc3c2)cc1	90.3%
Cc1c(C)c2ccc(OCC(=O)c3ccccc3)c(C)c2oc1=O	16.4%
O=C(COc1cccc2ccccc12)NCc1ccco1	3.6%
C[C@@H]1O[C@@H](Nc2ccc(Cl)cc2[N+](=O)[O-])[C@H](O)[C@H](O)[C@H]1O	54.7%
COCCNC(=O)CC12CC3CC(C1)CC(CC(=O)NCCOC)(C3)C2	4.2%
Cc1cc(OCC(=O)Nc2ccc3ccccc3c2)cc(C)c1Cl	9.6%
COC(=O)C1=C(C(=O)OC)C2(OC1c1ccccc1C)C(=O)c1ccccc1C2=O (configuration not stated)	-3.5%
O=C1CCCC/C1=C\Nc1ccc([N+](=O)[O-])cc1Br	4.4%
COc1ccc(N2C(=O)NC(=O)/C(=C/c3ccc(-c4ccc(F)cc4)o3)C2=O)cc1	100%
CC1=C(C(=O)OC(C)C)C(c2ccc(Cl)cc2)NC(=O)N1 (configuration not stated)	-2.1%
O=C(N1CCCCC1)C12CC3CCC(CC(C3)C1)C2	6.3%
COc1ccccc1NC(=O)C1=C(C)NC(SCC(=O)c2ccccc2)=C(C#N)C1c1ccccc1Cl (configuration not stated)	-3.5%
COc1ccccc1CNC(=O)c1cc(Cl)ccc1Cl	10%
O=C(O)C1C2CCC(C2)C1C(=O)Nc1nc(-c2ccc(Cl)cc2)cs1 (configuration not stated)	7.1%
CCOC(=O)C1=C(c2ccccc2)N=c2s/c(=C\c3ccc(O)c(OC)c3)c(=O)n2C1c1ccc(OC)cc1 (configuration not stated)	104%
CCOc1ccccc1N1CCN(C(=O)c2ccc([N+](=O)[O-])cc2Cl)CC1	1.5%
O=C(Nc1ccc(NC(=O)c2ccc3ccccc3c2)cc1)c1ccccc1	11.4%
O=C(CN(Cc1ccccc1)S(=O)(=O)c1ccccc1)NCc1ccc(Cl)cc1	8.5%
COc1ccc(OC)c(/C=C2N=C(/C=C/c3ccccc3)OC/2=O)c1	9.6%
COc1ccc(C2Nc3ccccc3C(=O)N2Cc2ccco2)cc1COc1ccc(F)cc1 (configuration not stated)	10.3%
C=CCNC(=O)C(=O)N/N=C/c1ccc2c(c1)OCCO2	7.1%
CC(=O)C1=C(O)C(=O)N(CC2CCCO2)C1c1ccccc1 (configuration not stated)	10%

SMILES	displacement
C#CCSc1nc2ccccc2n1C(=O)c1cccs1	22.7%
CN(C)c1ccc(/C=C2/C(=O)ON=C2c2ccccc2)cc1Br	-46.9%
NC(=O)c1cc(NC(=O)c2ccc(Cl)c(Cl)c2)cc(C(N)=O)c1	-8.4%
O=C(NC(NC(=S)Nc1ccccc1Cl)C(Cl)(Cl)Cl)c1ccccc1F (configuration not stated)	10%
CC(C)Cc1nnc(NC(=O)Nc2ccc(Cl)c(Cl)c2)s1	3.9%
CC(C)(C)Nc1ncnc(NC(C)(C)C)c1[N+](=O)[O-]	-1.3%
C=CCCCC(=O)Nc1ccccc1C	14.5%
Cc1cccc(CN2CCN(C(=O)c3ccccc3F)CC2)c1	-9%
CC1=NN(C(=O)c2ccccc2Cl)C(O)(c2ccccc2)C1 (configuration not stated)	1.1%
Cc1cccc(C(=O)Oc2ccc(/C=C3/SC(=S)NC3=O)cc2)c1	6%
CCCC(=O)Nc1c(C)n(C)n(-c2ccccc2)c1=O	-5.9%
O=S(=O)(Nc1ccccn1)c1ccc(Br)cc1	-12.9%
O=C1NC(=S)NC(=O)C1=Cc1ccc(OCc2ccccc2Cl)cc1	0%
Cc1nc2ccc(C(=O)O)cc2c2c1CC(C)O2 (configuration not stated)	-24.8%
COc1ccc(C(=O)CSc2ccccc2C(=O)O)cc1	-5.5%
COc1cc(C(=O)NC(NC(=S)Nc2ccccc2C)C(Cl)(Cl)Cl)cc(OC)c1OC (configuration not stated)	8.7%
CC(NC(=O)c1c(NC(=O)c2ccco2)sc2c1CCCCC2)c1ccccc1 (configuration not stated)	-6.1%
CCc1ccc(S(=O)(=O)Nc2ccc(C)cn2)cc1	3.5%
CCOc1ccc(/C=C(\C#N)C(=O)NCc2ccco2)cc1OC	-11.5%
CNC(=O)c1cc2cc(OC)ccc2n1CCN(C)C	-11.4%
C=CCN(CC=C)CCCCOc1cccc(C)c1	-11.7%
Cc1cccc(N2C(=O)C3CC=CCC3C2=O)n1 (configuration not stated)	12.8%
CCOc1ccc2oc(C)c(C(=O)OC)c2c1	10.3%
Fc1cccc(Cl)c1CSc1nc2ccccc2[nH]1	6.9%
O=C(CC(=S)c1cccs1)c1ccncc1	-35.3%
COc1cc(C(=O)N2CCN(C)CC2)c([N+](=O)[O-])cc1OC	-0.1%

SMILES	displacement
CC1(c2ccc(Br)cc2)NN=C(c2ccccc2)S1 (configuration not stated)	-5.6%
Cc1ccc(N2CCN(/N=C\c3cccc(Br)c3)CC2)cc1	-3.9%
CCOC(=O)C1=C(O)/C(=C/c2ccc(C)o2)SC1=Nc1ccccc1	-4.6%
COc1cccc(NC(=O)C(=O)N/N=C/c2ccc(OC)cc2OC)c1	-1.6%
O=C1NC(=S)N(c2cccc(Cl)c2)C(=O)/C1=C\C=C\c1ccccc1[N+](=O)[O-]	-1.8%
O=C(c1cc(N2CCCCC2)c(F)cc1[N+](=O)[O-])N1CCCCC1	9.9%
Cc1ccc(C(=O)Nc2sc3c(c2C#N)CCCCCC3)o1	4.7%
CCOc1ccccc1N1CCN(C(=O)c2cc(-c3cccc(C)c3)nc3ccccc23)CC1	-4.4%
COC(=O)C1=C(C)NC(C)=C(C(=O)OC)C1c1ccc(-c2ccc(Cl)cc2Cl)o1	3.8%
COC(=O)c1ccc(NC(=O)CC(=O)Nc2ccc(C(=O)OC)cc2)cc1	2.1%
CCCCOc1ccc(C=C2C(=O)N(C)C(=O)N(C)C2=O)cc1	8.8%
COc1ccc(C2c3c(nn(-c4ccccc4)c3C)CC(C)(O)C2C(C)=O)cc1OC (configuration not stated)	1.1%
CCN(CC)C(=O)c1sc(NC(=O)c2ccc(C(C)(C)C)cc2)c(C(=O)OC)c1C	4.7%
Cc1cccc(NC(=O)c2ccncc2)c1	3.4%
CCN1C(=O)/C(=C\c2ccc(N(C)C)cc2)SC1=S	-10.2%
COc1ccc(/C(C)=N/N2C(=O)c3ccccc3C2=O)cc1	-7.6%
O=C(NC1CCCCC1Cc1ccco1)c1cccc2ccccc12 (configuration not stated)	5.2%
CCOC(=O)c1ccc(NS(=O)C23CC4CC(CC(C4)C2)C3)cc1 (configuration not stated)	18.5%
COC(=O)Cn1c2ccccc2n2nc(C)nc12	-1.7%
COc1ccc(OC)c(C2/C(=C(\O)c3ccccc3)C(=O)C(=O)N2Cc2cccnc2)c1 (configuration not stated)	7.4%
Cc1ccc(C(=O)NCC2CCCO2)cc1[N+](=O)[O-] (configuration not stated)	-10%
O=C1N=c2ccc(Cl)cc2=C1c1sc(=S)n(Cc2ccccc2)c1O	-17.4%
O=C1N=C(N2CCCC2)S/C1=C\c1cccc(O)c1	-15.6%
O=C(O)c1ccc2c(c1)C(=O)N(c1cccc(C(=O)Nc3cccc(Cl)c3)c1)C2=O	4.3%
CS(=O)(=O)N1CCN(Cc2cccc3ccccc23)CC1	12.7%
Cc1[nH]nc2c1C(C(C)c1ccccc1)C(C#N)=C(N)O2 (configuration not stated)	-8%

SMILES	displacement
Cc1ccccc1OCC(=O)Nc1ccc2oc(-c3ccc(F)cc3Cl)nc2c1	2%
O=S(=O)(c1ccccc1)N1CCN(c2ccccn2)CC1	-3.9%
Cc1ccc(S(=O)(=O)N2CCN(Cc3ccc(F)cc3)CC2)cc1	10%
Cc1ccc(NC(=O)CN(c2ccc(Oc3ccccc3)cc2)S(C)(=O)=O)cc1	5.1%
CCN(CC)c1ccc(C(=O)Nc2ccc(Cl)cc2Cl)cc1	12.2%
Cc1ccc(C(c2ccc(C)o2)c2cc(Br)cc([N+](=O)[O-])c2O)o1	9.3%
COc1ccc(NC(=O)CN(c2cc(C)cc(C)c2)S(=O)(=O)c2ccccc2)c(OC)c1	-3%
Cc1nc2ccccc2n1S(=O)(=O)c1cc([N+](=O)[O-])ccc1Cl	18.9%
COc1ccc(C2Nc3ccccc3NC3=C2C(=O)CC(C)(C)C3)cc1COc1ccc(F)cc1 (configuration not stated)	-2.5%
Cn1c(/C=C/c2ccc([N+](=O)[O-])cc2)nc2ccccc2c1=O	2.9%
Cc1nn(CC(O)Cn2c3ccc(Cl)cc3c3cc(Cl)ccc32)c(C)c1Br (configuration not stated)	-3%
Cc1ccc(Cl)cc1NC(=O)c1c(-c2ccccc2)noc1C	-7.7%
CCOC(=O)c1c(NC(=O)c2ccc(F)cc2)sc(C(=O)Nc2ccccc2OCC)c1C	1.8%
COC(=O)Nc1sc(C)c(C)c1C(N)=O	-0.7%
CC1=NC(c2ccccc2)(c2ccccc2)c2ccccc2O1	6.5%
O=C(O)COc1ccc(-c2ccccc2)cc1	13.7%
Nc1cccc2c1C(=O)c1c(N)cccc1C2=O	-4.2%
Cc1cc(NC(=O)c2cc3n(n2)C(C(F)(F)F)CC(c2ccc(Cl)c(Cl)c2)N3)no1 (configuration not stated)	8.1%
COc1ccc(Cl)cc1NC(=O)c1ccc(C(=O)Nc2cc(Cl)ccc2OC)cc1	-7.2%
CS(=O)(=O)c1ccc2nc(NC(=O)COc3ccc(Cl)cc3Cl)sc2c1	7.1%
Cc1cc(C)c2oc(-c3ccc(NS(=O)(=O)c4ccccc4)cc3)nc2c1	-1.3%
O=C(CSc1ccccn1)Nc1nc2ccccc2s1	1%
COc1ccc(C(=O)Nc2ccc(NC(=O)c3ccco3)c(C)c2)cc1OC	11.1%
COc1ccc(/C=C/C(=O)Nc2ccc([N+](=O)[O-])cc2OC)cc1	-6%
